Out of some 48,000 compounds screened, about 450 (0.94%) were called active. About 19% were inconclusive and are not listed. Calls come from the whole dose curve; as a rule, active = well fitted inhibition curve with a large enough effect; inconclusive = small, poorly fitted or top-dose-only effect; inactive = no such curve, though single readings can be large or run the other way. The list shows a part of the results.
Test: Primary qHTS for Identification of Small Molecule Inhibitors of Huntingtin Promoter Activity; note: nearly all actives have a fitted effect of over 50% in size
Settings: HEK293 HTT promoter firefly luciferase reporter (activity 0% = vehicle and -100% = no light), 24 h; series mostly up to 57.5 µM; activity change, negative = inhibition: at the top concentration
Summary of the method: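 HEK293 cells carrying firefly luciferase reporters were seeded at 2,500 per well in Opti-MEM and cultured for 24 h. They were then treated with compounds at up to 57.5 uM final for 24 h at 37 degrees C before Dual-Glo luminescence readout.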

Activity change, negative = inhibition, inactive:
CC(C)C[C@H](N)c1nnc(SCc2ccc(Cl)cc2Cl)o1 -29.1%
CC1=C(c2ccc(C(C)C)cc2)S(=O)(=O)N=C1N1CCN(c2ccccc2F)CC1 -24.7%
CN1CCN(C(CNC(=O)C(=O)Nc2ccc(Cl)cc2)c2cccnc2)CC1 (stereo not given) -0.507%
Cc1ccc(C)c(N2CCN(C(=O)CCc3nnc4n(C)c(=O)c5ccccc5n34)CC2)c1 -0.169%
CCOC(=O)c1cccnc1SCC(=O)N(CC)c1cccc(C)c1 -26.2%
CC(C)(C)c1ccc(OCC(=O)Nc2ccc(C(=O)OC3CCCCC3)cc2)cc1 3.2%
COc1ccc(F)cc1S(=O)(=O)NCC(c1ccco1)S(=O)(=O)c1cccs1 (stereo not given) -7%
CC(C)Cn1nc(NC(=O)c2cccc(Cl)c2)c2cc3ccccc3nc21 -17.9%
CCc1ccccc1NC(=O)c1oc(=O)c2ccccc2c1-c1ccccc1 -25.6%
CCCCCN(CCCCC)C(=O)C(CCC(=O)O)NC(=O)c1ccc(Cl)c(Cl)c1 (stereo not given) -11.8%
CCCCOc1cccc(C(=O)Nc2sc3c(c2C(=O)OCC)CCCC3)c1 -6.81%
Cc1cccc2c(=O)cc(CSc3ccccc3NC(=O)C(C)C)[nH]c12 6.47%
COc1cccc(NC(=O)CSc2nc(=O)n(Cc3cccnc3)c3c2CCC3)c1 0%
Cc1ccc2nc3c(cc(C#N)c(=O)n3-c3nnc(SCc4ccc(F)cc4)s3)c(=O)n2c1 -9.06%
COc1ccc(OCC(=O)Nc2ccc(-c3nc4cc(Cl)ccc4o3)cc2)cc1 105%
Cc1ccc(Sc2ccc(N3CCCC(C(=O)Nc4ccc(F)c(Cl)c4)C3)nn2)cc1 (stereo not given) -28.2%
COc1ccc(CCNC(=O)CCCCn2c(=O)c3ccccc3n(Cc3cc(C)ccc3C)c2=O)cc1OC -6.41%
CCOc1ccc(CNC(=O)c2ccc3c(c2)c(C)c(C)n3C)cc1 3.1%
CCCN(CCC)C(=O)Cn1c(=O)n(-c2ccc(OC)cc2OC)c(=O)c2c3c(sc21)CCC3 -12.1%
CCOc1ccc(-n2c(SCc3ccccc3)nc3c([nH]c4ccccc43)c2=O)cc1 -12.3%
CCCn1c2ccccc2c2cnn(CC(=O)NCC3CCN(Cc4ccc(C)cc4)CC3)c(=O)c21 -13.4%
Cc1ccc(NC(=O)Nc2nnc(SCC(=O)N3CCCCC3)s2)cc1 -15.2%
COc1cccc(N2CC(NC(=O)c3cc4ccccc4o3)CC2=O)c1 (stereo not given) -23.3%
CC(C)c1ccc2c(c1)NC(c1ccc(F)cc1)=NC(c1cccs1)=N2 -28.2%
Cc1nc2ncnn2c(C)c1CCC(=O)N1CCN(c2ccc(F)cc2)CC1 -0.563%
Cc1cccc(C(=O)NCCc2nc3ccccc3n2Cc2ccccc2Cl)c1 0.0337%
CCOC(=O)CCc1c(C)nc2c(-c3ccccc3)c(C)[nH]n2c1=O -10.8%
O=C(CSc1nnc(-c2ccncc2)n1-c1ccccc1)Nc1ccc(F)cc1 -14.2%
CCOc1ccccc1CNC(=O)CSc1n[nH]c(-c2ccccc2)n1 -28.7%
CC(C)c1noc(-c2ccccc2OCC(=O)Nc2ccc([N+](=O)[O-])cc2)n1 -8.22%
COc1ccc(OC)c(C2C(C(=O)Nc3ccc(C)cc3C)=C(C)Nc3c(C(=O)Nc4ccc(F)cc4)cnn32)c1 (stereo not given) 3.29%
CCn1c2c(c(=O)n3ncc(C(=O)N4CCN(c5ccccc5)CC4)c13)CN(Cc1ccc(OC)cc1)CC2 -27.2%
Cc1cc(=O)n(Cc2cccc(Cl)c2)c2c1c(C)nn2C 0%
Nc1ccc(O)cc1 12%
CCOC(=O)c1ccccc1NC(=O)c1cn(CC(C)C)c(=O)c2cc(OC)c(OC)cc12 -0.306%
COc1ccc(OC)c(-c2noc(CSc3nnc(-c4ccccc4)n3-c3ccccc3)n2)c1 -14.2%
Cc1ccc(OCC(=O)Nc2nnc(S(=O)(=O)N3CCc4ccccc43)s2)cc1 -9.46%
COc1ccc(N2CCN(S(=O)(=O)c3ccc(C4CCCCC4)cc3)CC2)cc1 -13.8%
CCCCN(CCCC)CCC(O)c1cc2c(Cl)cc(Cl)cc2c2cc(C(F)(F)F)ccc12 (stereo not given)
COCCCNC(=O)CCCn1c(SCC(=O)c2ccc(F)cc2)nc2c(sc3ccccc32)c1=O -12.1%
COc1ccc(CNC(=O)CSc2ncc3c(n2)-c2ccc(Cl)cc2N(Cc2ccc(F)cc2)S3(=O)=O)cc1OC -14.5%
CCOC(=O)c1ccc(NC(=O)CSc2nnc3c4ccccc4n(CC)c3n2)cc1 0%
O=C(CSc1c2c(nc3ccccc13)CCC2)Nc1ccc(F)cc1 -12.6%
COc1ccc(Cn2c(C(=O)O)c(CNCc3ccco3)c3ccc(OC)cc32)cc1 -29.7%
COc1ccc(-n2cnc3cc(C(=O)NC4CCCC4)ccc32)cc1 -20.7%
CN(C)c1ccc(CNC(=O)c2ccc(Cn3c(=O)c4cccn4c4cccnc43)cc2)cc1 -7.75%
CCc1ccc2ncc(C(=O)c3ccc(C)c(C)c3)c(N3CCC(C(N)=O)CC3)c2c1 -16.4%
Cc1ccc(Cn2c(CNC(=O)CCc3ccccc3)nc3cccnc32)cc1 -3.78%
Cc1cccc(N2CCN(Cc3nnc(-c4ccccc4C)o3)CC2C)c1 (stereo not given) -28.5%
CCCOc1ccc(C(=O)N(Cc2ccccc2Cl)C2CCS(=O)(=O)C2)cc1 (stereo not given) -18.2%
COc1ccc(C2=Nc3ccc(F)cc3NC(c3cccc(C(F)(F)F)c3)=N2)cc1 -13.2%
COC(=O)c1ccccc1NC(=O)c1cnc(Nc2ccc(OC)cc2)c2ccccc12 -6.73%
CCCCOc1cccc(C(=O)N(Cc2ccc(N(C)C)cc2)C2CCS(=O)(=O)C2)c1 (stereo not given) -30.8%
Cc1cc(-c2nc3ncccc3o2)ccc1NC(=O)c1ccccc1Br 6.86%
O=C(COc1ccc(F)cc1)NCC(c1ccc(Cl)cc1)N1CCCCC1 (stereo not given) -29%
Cc1ccc(CCNC(=O)CCCn2c(=O)c3ccccc3n(Cc3ccccc3C)c2=O)cc1 -26.2%
COc1cc(OC)c(-c2cc(C(=O)NCc3ccc(F)cc3)c3c(-c4ccccc4)[nH]nc3n2)cc1OC -22.4%
COc1ccc(CCNC(=O)Cn2c(=O)n(-c3ccccc3)c(=O)c3c(C)c(C)sc32)cc1OC -16.9%
CC(=O)N1c2ccc(S(=O)(=O)N3CCCCCC3)cc2CC1C(=O)NCc1ccccc1C (stereo not given) -19.8%
COc1ccc(-n2nc(C(=O)N3CCN(c4ccccc4OC)CC3)c3c4ccccc4n(C)c3c2=O)cc1Cl 1.41%
COc1ccccc1CNC(=O)CCCN1C(=O)CSc2c1c(C)nn2-c1ccccc1 -2.02%
CC(=O)N1CCOc2cc(S(=O)(=O)NCc3ccc(F)cc3)c(C)cc21 10.5%
O=C(Nc1ccc2c(c1)CCCN2C(=O)c1cccs1)c1ccccc1 -17.5%
O=C(Cn1c(=O)n(Cc2ccccc2)c(=O)c2sc3ccccc3c21)Nc1ccccc1F -13.3%
O=C(NC1CCCc2ccccc21)c1ccc2c(c1)sc1nc(-c3ccccc3)cn12 (stereo not given) -4.69%
CC(C)C1N=C2c3ccccc3N=C(SCC(=O)NCc3ccc(Cl)cc3)N2C1=O (stereo not given) -22.9%
CCOc1ccccc1NC(=O)C1CCN(S(=O)(=O)c2cccs2)CC1 2.04%
CCOc1ccc(NC(=O)Cn2ccn3nc(-c4ccc(OC)c(OC)c4)cc3c2=O)cc1 11.6%
COc1cc(F)c(F)c(Nc2ccc(I)cc2F)c1NS(=O)(=O)C1(C[C@H](O)CO)CC1 -8.88%
Cc1cc(C)cc(NC(=O)Nc2ccc3nc(N4CCN(C)CC4)cc(C)c3c2)c1 4.2%
Cc1nc(N2CCCC2)c2c(C(=O)Nc3cccc(Cl)c3)c(C)oc2n1 -11.7%
CCCS(=O)(=O)c1nc(S(=O)(=O)c2ccc(C)cc2)c(NCc2ccccc2Cl)s1 -23.5%
CC1(C)CC(=O)c2cc(C#N)c(=O)n(-c3ccc(Cl)cc3)c2C1 14.7%
COc1ccc(NC(=O)Cn2cc(C(=O)c3ccccc3)c(=O)c3cc(OC)ccc32)c(OC)c1 5.9%
O=C(O)CCC(=O)Nc1sc2c(c1C(=O)Nc1ccccc1)CCCCC2 -0.535%
Cc1ccsc1CN(C(=O)c1ccc(OCC(C)C)cc1)C1CCS(=O)(=O)C1 (stereo not given) -25.9%
Cc1ccc2oc(-c3cccc(NC(=O)Cc4ccc(Cl)cc4)c3)nc2c1 -3.95%
Cc1ccc(Sc2c(C)nn(C(=O)c3ccc(Cl)cc3)c2C)cc1 -6%
CCOC(=O)c1c(S(=O)(=O)N2CCCC(C(=O)Nc3ccc(C)cn3)C2)c(C)n(C)c1C (stereo not given) -10.9%
Cc1ccc(-n2c3nc(=O)[nH]c(=O)c-3cc3c(C)nn(-c4ccccc4)c32)cc1C -14.2%
Cc1cccc(NC(=O)CSc2nc3ccccc3nc2N2CCOCC2)c1C -3.73%
CCOc1ccc(CNS(=O)(=O)c2cc3c(cc2C)NC(=O)CO3)cc1 -5.14%
CC(=O)c1ccc(N2CCN(C(=O)CCCCn3c(=O)[nH]c4ccsc4c3=O)CC2)cc1 -2.41%
CCSc1nnc(NC(=O)c2cc(=O)c3cc(C)c(C)cc3o2)s1 -8.76%
COc1ccc(Cn2c(=O)c3cccnc3n(CC(=O)Nc3c(C)cc(C)cc3C)c2=O)cc1 5.83%
CCc1cnc2c(c1SCC(=O)c1ccc(Cl)cc1)c(=O)n(C)c(=O)n2C -17.8%
CCOC(=O)c1c(-c2ccc(OC)cc2)oc2ccc(OCc3ccc(Br)cc3)cc12 -4.01%
Cc1ccc(N(CC(=O)Nc2ccc(Br)cc2)S(=O)(=O)c2cccs2)cc1 -11.1%
COc1ccc(S(=O)(=O)n2nc(C)c(S(=O)(=O)N3CCC(C)CC3)c2C)cc1OC -5.1%
O=C(Nc1nnc2n1CCS2)c1ccccc1C(F)(F)F 1.19%
CC(C)CCNC(=O)CCC(=O)NNc1nc2ccccc2c2nc(-c3ccccc3)nn12 -5.73%
COc1cc(OC)cc(C(=O)N2CC(=O)Nc3ccc(Cl)cc3C2c2ccccc2)c1 (stereo not given) -10.9%
COc1ccc(C2=C(C)C(N3CCC(C(=O)Nc4ccc(F)cc4C)CC3)=NS2(=O)=O)cc1 -19.3%
O=C(Nc1ccc(Cl)c(C(F)(F)F)c1)C(Cc1ccccc1)NS(=O)(=O)c1ccc(Br)s1 (stereo not given) 1.74%
CCOc1ccc(NC(=O)C(=O)NCc2ccco2)cc1 -18.1% [at 11.5 µM]

Source: PubChem BioAssay AID1508623 (National Center for Advancing Translational Sciences (NCATS), 2021)
